Here are results for 26 compounds from the supplement of paper PMC10037445.

Experiment [1] has as its system RAW-Dual. In words: NF-kB SEAP reporter activity, fold change vs agonist alone; cytotoxicity flag (confluency mask): not cytotoxic; higher = enhanced NF-kB activity. The procedure, abridged: (§1)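 RAW-Dual macrophages were seeded in DMEM at 50,000 cells/well in 384-well plates, given 50 nL of library stock by pin tool, and given a PRR agonist 1 h later. Plates were held at 37 °C, 5% CO2 for 20 hours, after which supernatant was read for IRF by QuantiLuc luminescence and for NF-κB by QuantiBlue absorbance at 620 nm. Reporter activity is expressed as fold change over wells that received agonist alone. A well was called cytotoxic when IncuCyte confluency fell below 70% of agonist controls in both mask sets.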

The test system of experiment [2] is RAW-Dual. The experiment in a line: NF-kB SEAP reporter activity, fold change vs agonist alone; higher = enhanced NF-kB activity. The procedure, abridged: as §1
The test system of experiment [3] is RAW-Dual. In words: NF-kB SEAP reporter activity, fold change vs agonist alone; cytotoxicity flag (confluency mask): cytotoxic (confluency <70% of control); higher = enhanced NF-kB activity. The procedure, abridged:
as §1

Where [4] appears, read: agonist: ODN 1826 (TLR9) 0.5 ug/mL.
[5] abbreviates: agonist: Pam2CSK4 (TLR2/6) 0.1 ug/mL.
Setting [6] is: agonist: Pam3CSK4 (TLR2/1) 0.1 ug/mL.
Setting [7] is: library stock concentration (final ~1000-fold dilution): 10 mM, cytotoxicity flag (confluency mask): not cytotoxic, agonist: Imiquimod (TLR7) […].
Setting [8] is: library stock concentration (final ~1000-fold dilution): 10 mM, cytotoxicity flag (confluency mask): not cytotoxic, agonist: MPLA (TLR4) […].

SMILES strings stand for the structures. Over roughly 2,900 compounds, “NF-kB SEAP reporter activity, fold change vs agonist alone” has its median near 0.99; the highest 2% begin near 2.6. The list shows a part of the results.

Turning to `CNC(=C[N+](=O)[O-])NCCSCc1csc(CN(C)C)n1` (library stock concentration (final ~1000-fold dilution): 10 mM), the “NF-kB SEAP reporter activity” value with RAW-Dual [1] (agonist: LPS (TLR4) 0.1 ug/mL) worked out at 0.948; in the experiment on RAW-Dual [1] (setting [4]), 1.02; in the experiment with RAW-Dual [1] (setting [5]) it was 1.03; in the experiment on RAW-Dual [1] (setting [6]), 1.08.
Consider `CNC(=C[N+](=O)[O-])NCCSCc1csc(CN(C)C)n1`, for which the “NF-kB SEAP reporter activity” value in the experiment on RAW-Dual [2] (setting [7]) was determined as 0.919; in the experiment on RAW-Dual [2] (setting [8]), 0.874.
On the same counts, the results for `Cc1cc(Nc2cc(Cl)nc(Oc3ccc([N+](=O)[O-])cc3)n2)n[nH]1` are 1.24 and 2.16.
Consider `Cc1cc(Nc2cc(Cl)nc(Oc3ccc([N+](=O)[O-])cc3)n2)n[nH]1` (library stock concentration (final ~1000-fold dilution): 10 mM), for which the “NF-kB SEAP reporter activity” value was 3.28 with RAW-Dual [1] (agonist: LPS (TLR4) 0.1 ug/mL), 2.32 with RAW-Dual [1] (setting [4]), 1.82 in the experiment with RAW-Dual [1] (setting [5]) and 2.92 in the experiment on RAW-Dual [1] (setting [6]).
On the same counts, the results for `C=CC(=O)Nc1cccc(Nc2nc(Nc3ccc(NC4CN(CCF)C4)cc3OC)ncc2C(F)(F)F)c1` (library stock concentration (final ~1000-fold dilution): 10 mM) are 0.561, 0.536, 0.359 and 0.725.
Consider `C=CC(=O)Nc1cccc(Nc2nc(Nc3ccc(NC4CN(CCF)C4)cc3OC)ncc2C(F)(F)F)c1`, for which the “NF-kB SEAP reporter activity” value with RAW-Dual [2] (setting [7]) amounted to 1.26; in the experiment on RAW-Dual [2] (setting [8]), 1.53.
In the case of `O=C(O)CC(O)CC(O)C=Cc1c(C2CC2)nc2ccccc2c1-c1ccc(F)cc1` (configuration not stated) (library stock concentration (final ~1000-fold dilution): 10 mM), the “NF-kB SEAP reporter activity” value in the experiment on RAW-Dual [1] (agonist: LPS (TLR4) 0.1 ug/mL) stood at 3; with RAW-Dual [1] (setting [4]), 3; with RAW-Dual [1] (setting [6]) it was 3.31.
Take `CS(=O)(=O)Nc1ccc([N+](=O)[O-])cc1Oc1ccccc1` (library stock concentration (final ~1000-fold dilution): 10 mM): the “NF-kB SEAP reporter activity” value in the experiment with RAW-Dual [1] (agonist: LPS (TLR4) 0.1 ug/mL) was 1.05; in the experiment with RAW-Dual [1] (setting [4]) it was 0.993; in the experiment with RAW-Dual [1] (setting [5]) it was 0.937; with RAW-Dual [1] (setting [6]), 0.873.
For the compound `CS(=O)(=O)Nc1ccc([N+](=O)[O-])cc1Oc1ccccc1`, the figures for the “NF-kB SEAP reporter activity” value in the experiment with RAW-Dual [2] (setting [7]) and with RAW-Dual [2] (setting [8]) were 0.516 and 1.08, respectively.
Consider `COc1cc(NC(=O)c2ccc(-c3ccc(Cl)cc3)o2)cc(OC)c1` (library stock concentration (final ~1000-fold dilution): 10 mM), for which the “NF-kB SEAP reporter activity” value in the experiment on RAW-Dual [1] (agonist: LPS (TLR4) 0.1 ug/mL) was found to be 1.49; in the experiment with RAW-Dual [1] (setting [4]), 1.14; in the experiment on RAW-Dual [1] (setting [5]), 1.21; in the experiment on RAW-Dual [1] (setting [6]), 1.01.
For the compound `COc1cc(NC(=O)c2ccc(-c3ccc(Cl)cc3)o2)cc(OC)c1`, the figures for the “NF-kB SEAP reporter activity” value in the experiment with RAW-Dual [2] (setting [7]) and in the experiment on RAW-Dual [2] (setting [8]) were 0.985 and 1.02, respectively.
In the case of `COc1cc2nccc(Oc3ccc(NC(=O)Nc4ccc(F)cc4F)c(F)c3)c2cc1OC`, the “NF-kB SEAP reporter activity” value with RAW-Dual [2] (library stock concentration (final ~1000-fold dilution): 10 mM, cytotoxicity flag (confluency mask): cytotoxic (confluency <70% of control), agonist: Imiquimod (TLR7) […]) came out at 0.799; in the experiment with RAW-Dual [2] (library stock concentration (final ~1000-fold dilution): 10 mM, cytotoxicity flag (confluency mask): cytotoxic (confluency <70% of control), agonist: MPLA (TLR4) […]) it was 0.975.
`COc1cc2nccc(Oc3ccc(NC(=O)Nc4ccc(F)cc4F)c(F)c3)c2cc1OC` (library stock concentration (final ~1000-fold dilution): 10 mM): the “NF-kB SEAP reporter activity” value came to 0.806 in the experiment on RAW-Dual [3] (agonist: LPS (TLR4) 0.1 ug/mL), 0.587 with RAW-Dual [3] (setting [4]), 0.463 in the experiment with RAW-Dual [3] (setting [5]) and 0.717 in the experiment with RAW-Dual [3] (setting [6]).
As for `Cl.Cl.OC(CN1CCN(c2cccc(Cl)c2)CC1)C(c1ccccc1)c1ccccc1` (configuration not stated), the “NF-kB SEAP reporter activity” value was 1.33 in the experiment with RAW-Dual [2] (setting [7]) and 1.04 in the experiment with RAW-Dual [2] (setting [8]).
Take `Cl.Cl.OC(CN1CCN(c2cccc(Cl)c2)CC1)C(c1ccccc1)c1ccccc1` (configuration not stated) (library stock concentration (final ~1000-fold dilution): 10 mM): the “NF-kB SEAP reporter activity” value with RAW-Dual [1] (agonist: LPS (TLR4) 0.1 ug/mL) is 0.841; with RAW-Dual [1] (setting [4]), 1.02; with RAW-Dual [1] (setting [5]), 0.761; with RAW-Dual [1] (setting [6]), 0.956.
In the same order, the values of `Cc1nc(Nc2ncc(C(=O)Nc3c(C)cccc3Cl)s2)cc(N2CCN(CCO)CC2)n1.O` (library stock concentration (final ~1000-fold dilution): 10 mM) are 1.33, 0.661, 0.283 and 0.215.
For `Cc1nc(Nc2ncc(C(=O)Nc3c(C)cccc3Cl)s2)cc(N2CCN(CCO)CC2)n1.O`, the “NF-kB SEAP reporter activity” value stood at 0.326 with RAW-Dual [2] (setting [7]) and 0.715 in the experiment with RAW-Dual [2] (setting [8]).
As for `Cc1ccc(C(=O)O)c(O)c1`, the “NF-kB SEAP reporter activity” value in the experiment with RAW-Dual [2] (setting [7]) came out at 0.973; with RAW-Dual [2] (setting [8]) it was 1.05.
For `Cc1ccc(C(=O)O)c(O)c1` (library stock concentration (final ~1000-fold dilution): 10 mM), the “NF-kB SEAP reporter activity” value in the experiment on RAW-Dual [1] (agonist: LPS (TLR4) 0.1 ug/mL) amounted to 0.77; with RAW-Dual [1] (setting [4]), 0.99; in the experiment with RAW-Dual [1] (setting [5]), 0.948; in the experiment on RAW-Dual [1] (setting [6]), 0.723.
For `CCOC(=O)NCCCC(=O)NCCc1ccccc1`, the “NF-kB SEAP reporter activity” value in the experiment with RAW-Dual [2] (setting [7]) was determined as 0.961; with RAW-Dual [2] (setting [8]), 0.985.
Consider `CCOC(=O)NCCCC(=O)NCCc1ccccc1` (library stock concentration (final ~1000-fold dilution): 10 mM), for which the “NF-kB SEAP reporter activity” value in the experiment on RAW-Dual [1] (agonist: LPS (TLR4) 0.1 ug/mL) stood at 1.31; in the experiment on RAW-Dual [1] (setting [4]) it was 0.995; in the experiment with RAW-Dual [1] (setting [5]), 1.17; in the experiment on RAW-Dual [1] (setting [6]), 1.06.
As to `Cc1cccc(C)c1OCC(=O)NC(Cc1ccccc1)C(O)CC(Cc1ccccc1)NC(=O)C(C(C)C)N1CCCNC1=O` (configuration not stated), the results for the “NF-kB SEAP reporter activity” value with RAW-Dual [2] (setting [7]) and in the experiment with RAW-Dual [2] (setting [8]) were 1.63 and 2.06, respectively.
In the case of `Cc1cccc(C)c1OCC(=O)NC(Cc1ccccc1)C(O)CC(Cc1ccccc1)NC(=O)C(C(C)C)N1CCCNC1=O` (configuration not stated) (library stock concentration (final ~1000-fold dilution): 10 mM), the “NF-kB SEAP reporter activity” value in the experiment with RAW-Dual [1] (agonist: LPS (TLR4) 0.1 ug/mL) stood at 1.37; in the experiment with RAW-Dual [1] (setting [4]) it was 2.09; with RAW-Dual [1] (setting [5]), 0.396; in the experiment with RAW-Dual [1] (setting [6]), 1.03.
In the same order, the values of `COc1cc2c(cc1NS(=O)(=O)c1ccc(Br)cc1C)n(C)c(=O)n2C` (library stock concentration (final ~1000-fold dilution): 10 mM) are 1.73, 1.23, 0.828 and 1.08.
Regarding `COc1cc2c(cc1NS(=O)(=O)c1ccc(Br)cc1C)n(C)c(=O)n2C`, the results for the “NF-kB SEAP reporter activity” value with RAW-Dual [2] (setting [7]) and in the experiment with RAW-Dual [2] (setting [8]) were 0.973 and 1.39, respectively.
Turning to `Cl.NCCCC(N)(C(=O)O)C(F)F.O` (configuration not stated), the “NF-kB SEAP reporter activity” value amounted to 1.01 in the experiment on RAW-Dual [2] (library stock concentration (final ~1000-fold dilution): 10 mM water, cytotoxicity flag (confluency mask): not cytotoxic, agonist: Imiquimod (TLR7) […]) and 1.04 in the experiment with RAW-Dual [2] (library stock concentration (final ~1000-fold dilution): 10 mM water, cytotoxicity flag (confluency mask): not cytotoxic, agonist: MPLA (TLR4) […]).
